# Test results published in PubChem BioAssay AID743279 (National Center for Advancing Translational Sciences (NCATS), 2014).
# Hit rate of the full screen: of about 360,000 compounds, about 17,000 (4.7%) were called active. This list was built around the results that the source calls inconclusive (neither active nor inactive); the mix of calls is not that of the screen. Rule as the data show it: active = activity change below about -50%; inconclusive = mostly about -30% to -49%; inactive = weaker than that.
# Assay: qHTS for Inhibitors of Inflammasome Signaling: IL-1-beta AlphaLISA Primary Screen
# Settings: THP-1 LPS/ATP IL-1B secretion, 16 h; at 57.5 µM, active compounds read low
# Method in brief: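 THP-1 cells pretreated 1 hr with compounds (up to 57.5 uM final), then stimulated with LPS (250 ng/mL final) plus ATP (1.25 mM final); secreted IL-1B measured by AlphaLISA after 16 hr, decreased signal indicating inhibition.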
# % is scaled to controls: 0 for no effect and ±100 for the full control effect.
row,Structure (SMILES),activity change
1,NC(=O)c1oc2ccccc2c1NC(=O)c1ccc([N+](=O)[O-])o1,active: -90.7%
2,N#Cc1ccc(S(=O)(=O)N2CCc3[nH]c4ccc(F)cc4c3C2)cc1,inconclusive: -46.2%
3,Fc1ccc(/C=N/N2CCN(Cc3ccccc3)CC2)cc1,inconclusive: -30.1%
4,O=C(NCc1ccco1)c1ccc(OC2CCN(Cc3ccccn3)CC2)cc1,inconclusive: -30.4%
5,COc1cccc(NC(=O)COC(=O)CCS(=O)(=O)c2ccc(C)cc2)c1,inactive: 20.8%
6,O=C1/C(=C/c2ccco2)Cc2ccccc21,inconclusive: -36.9%
7,CCOc1ccc(NC(=O)CSc2ncc(-c3ccc(F)cc3)n2Cc2ccco2)cc1,inconclusive: -38.3%
8,CCCCOc1ccc(S(=O)(=O)Nc2cc(OC)ccc2OC)cc1,active: -75.2%
9,Cn1c(C(=O)NCc2cccs2)cc2oc3ccccc3c21,inconclusive: -43.4%
10,COc1cc(F)ccc1CN1CCC(n2nccc2NC(=O)C2CCOC2)CC1 (stereo unspecified),inactive: 7.68%
11,CCOC(=O)c1ccc(N2C(=O)c3n[nH]c(C)c3C2c2cccnc2)cc1 (stereo unspecified),inactive: -2.81%
12,O=C(CSc1ncnc2ccccc12)Nc1ccc2c(c1)OCCO2,active: -98.1%
13,COc1ccc(CNC(=O)C(c2ccco2)N(C(=O)c2snc(C(N)=O)c2N)c2ccccc2OC)cc1 (stereo unspecified),inconclusive: -41.7%
14,COc1ccccc1-c1cnc(C(O)c2cccc(CN3CCCCC3)c2)[nH]1 (stereo unspecified),inactive: 31.1%
15,COc1cc(NC(=O)C(C)C)ccc1NC(=O)c1ccco1,inactive: -19.1%
16,CSC(=S)N/N=C/c1ccccc1,inactive: 24.8%
17,COc1ccc(CCNC(=O)c2[nH]c(C)c(C(C)=O)c2C)cc1OC,inactive: -12.8%
18,COc1cc(NC(=O)c2cc3ccccc3cc2O)c(OC)cc1Cl,inconclusive: -37.1%
19,COc1c(C)cc(C(=O)C2CCCN(C(=O)c3ccc4cc[nH]c4c3)C2)cc1C (stereo unspecified),inactive: -22.2%
20,CCOC(=O)c1c(C)[nH]c(C(=O)C(C)OC(=O)c2cccc(OCc3c(C)noc3C)c2)c1C (stereo unspecified),inconclusive: -33.7%
21,Nc1nc(SCc2ccccc2[N+](=O)[O-])c2ncn(Cc3ccccc3)c2n1,inactive: -21.4%
22,CC(Sc1nc(N2CCCCC2)c2c(c1C#N)CCCC2)C(=O)O (stereo unspecified),inactive: 32.4%

row,Structure (SMILES),activity change
1,CCOc1ccc(CCN2C(=O)C(=O)N([C@@H](Cc3ccc(O)cc3)CN3CCC[C@@H]3CN3C(=O)C(=O)NC[C@@H]3Cc3ccccc3)C[C@@H]2Cc2ccccc2)cc1,inconclusive: -49.8%
2,Cc1ccc(/C=N/NC(=O)c2ccc(NC(=O)c3ccccc3Cl)cc2)o1,active: -70.7%
3,O=C(CCN1C(=O)NC2(CCCC2)C1=O)Nc1ccc(Sc2ccc(Br)cc2)cc1,inconclusive: -39.5%
4,C=CCOn1c(=O)c(-c2ccc(Cl)cc2)[n+]([O-])c2ccccc21,inactive: 9.66%
5,O=C(Nc1cccc2ccccc12)c1nn(C23CC4CC(CC(C4)C2)C3)cc1[N+](=O)[O-],inconclusive: -43%
6,O=C(Nc1cccc(Cl)c1)Nc1ccc(Br)cc1F,active: -58.9%
7,O=C(/C=C/c1ccccc1)Nc1ccc2c(c1)OCCO2,inconclusive: -39.7%
8,Cc1cccc(NC(=O)c2cc([N+](=O)[O-])ccc2NCC2CCCO2)n1 (stereo unspecified),inconclusive: -38.8%
9,CCOc1cccc(NC(=O)c2ccc(S(=O)(=O)N3CCCC3)cc2)c1,inactive: -3.75%
10,Cc1onc(-c2ccccc2Cl)c1C(=O)NC(=S)Nc1ccc(C(C)C)cc1,inconclusive: -36%
11,O=C(Nc1cc(Br)ccc1O)c1cc(-c2ccccc2)on1,inconclusive: -46.7%
12,CN1CCN(c2ccccc2NC(=O)c2ccc(-c3ccccc3)cc2)CC1,active: -59.3%
13,COc1ccc(C[C@H]2CN3C(=NC[C@@H]3C(C)C)N2C[C@H](C)NC(=O)c2ccc(C)c(Br)c2)cc1,active: -57.1%
14,COc1ccc(Cc2nnc(SCC(=O)c3ccc(OC)cc3)o2)cc1,inconclusive: -48.2%
15,CCCNC(=S)Nc1cc2oc3ccccc3c2cc1OC,inconclusive: -45.6%
16,CCOc1cccc(/C=C/c2ccc3ccccc3n2)c1OC(C)=O,active: -92%
17,C/C(=N\Nc1ccc(C(=O)O)cc1)c1ccc(-n2ccnc2)cc1,inconclusive: -36%
18,CCCc1nc2c3ccccc3ccn2c1Cc1cccc(Cl)c1,inactive: 33.3%
19,COc1ccc(Cn2cc(C(=O)O)c(=O)c3ccccc32)cc1,inactive: 17.1%
20,Cc1oc(C)c2c(=O)ccc3c(c12)OC(N)=C(C#N)C3c1ccccc1Cl (stereo unspecified),inconclusive: -45.3%
21,Cc1cc(NC(=O)Cn2nc(-c3cccs3)ccc2=O)cc(C)c1Br,inconclusive: -38.9%
22,COc1cc(SC)ccc1C(=O)Nc1cccc(S(=O)(=O)NC2=NCCC2)c1,inconclusive: -41.7%

row,Structure (SMILES),activity change
1,CCOCCCn1c(SCC(=O)NC2CCCC2)nc2ccccc2c1=O,inconclusive: -34.3%
2,CC(=O)Nc1ccc2oc(-c3ccccc3)nc2c1,inconclusive: -48.2%
3,CC1C=CCC2C(=O)N(c3cccc(C(=O)Nc4ccc(Br)cc4)c3)C(=O)C12 (stereo unspecified),inconclusive: -31.4%
4,COC(=O)c1cc(S(=O)(=O)N2CCCC2)c(Cl)cc1Cl,inconclusive: -30.1%
5,Cn1c(=O)n(C)c2cc(NC(=O)CSc3ccccc3)ccc21,inactive: 19%
6,O=c1c2ccccc2sn1-c1ccccc1F,active: -107%
7,CC1CCN(CC(=O)Nc2ccc(S(=O)(=O)NC3CC3)cc2)CC1,inactive: -9.91%
8,COc1c2occc2c(OC(C)=O)c2c(=O)cc(C)oc12,inconclusive: -46%
9,CN(CC(=O)NCc1ccco1)S(=O)(=O)c1ccc2c(c1)n(C)c(=O)c(=O)n2C,inactive: -9.82%
10,NC(Cc1ccccc1)c1csc(NC(=O)Nc2ccccc2Oc2ccccc2)n1 (stereo unspecified),inconclusive: -32.7%
11,S=C(NC1CC2CCC1C2)N1CCN(c2cccc(Cl)c2)CC1 (stereo unspecified),inactive: -9.14%
12,O=C(OCc1cc(=O)oc2cc(O)ccc12)c1cc(S(=O)(=O)N2CCOCC2)ccc1F,active: -103%
13,COc1cccc(C2c3cc4c(cc3OC(C)(N3CCCC3)C2C)OCO4)c1O (stereo unspecified),active: -66%
14,CCC1NC(=O)c2cccnc2-n2c1nc1cc(OC)c(OC)cc1c2=O (stereo unspecified),inconclusive: -33.4%
15,CCOc1ccc(-c2nc(C#N)c(NCc3ccco3)o2)cc1,inconclusive: -40.9%
16,CCN(CC)c1ccc(S(=O)(=O)N2CCOCC2)cc1NC(=O)CSc1nnc(N)s1,inconclusive: -47.2%
17,CN(CC(=O)Nc1cccc(F)c1)CC(=O)Nc1ccc(Cl)cc1[N+](=O)[O-],inactive: 3.07%
18,COc1ccccc1C(CNC(=O)c1cccc(S(=O)(=O)N2CCCc3ccccc32)c1)N(C)C (stereo unspecified),inconclusive: -46.6%
19,CSCC[C@H](NC(=O)c1ccc2ccccc2c1)C(=O)N1CCC2(CC1)NCCc1[nH]cnc12,inconclusive: -32.2%
20,COc1cccc(N2CCN(C3CC(=O)N(c4ccc(F)c(Cl)c4)C3=O)CC2)c1 (stereo unspecified),inactive: 33.7%
21,COc1ccc(NC(=O)N(C)[C@H]2C[C@H]3c4[nH]c5ccc(-c6ccc(OC)cc6)cc5c4CCN3C[C@H]2[C@H](C)O)cc1,inconclusive: -35.8%
22,Cc1onc(-c2ccccc2)c1C(=O)NC1CCC(C)CC1 (stereo unspecified),inactive: 34.3%

row,Structure (SMILES),activity change
1,Cc1ccc(NC(=O)c2oc3ccccc3c2NC(=O)c2ccc3c(c2)OCO3)cc1,inconclusive: -46.7%
2,CCOC(=O)/C=C/C(=O)N1CCc2ccccc21,inconclusive: -38.5%
3,C/C=C/C(=O)OCC(=O)Nc1cccc(Br)c1,inconclusive: -47.1%
4,O=C(NC1CCCCCC1)c1c(F)c(F)c(F)c(F)c1F,active: -90.8%
5,CCN1CCN(CCCNC(=O)c2ccc(/C=C3/Sc4ccccc4N(Cc4ccccc4F)C3=O)cc2)CC1,inconclusive: -40.8%
6,CC1=CC(C)(C)N(C(=O)CSc2nnc(C)s2)c2ccc(C)cc21,active: -62.8%
7,c1ccc(C2=Nn3c(nnc3-c3ccccn3)SC2)cc1,inconclusive: -32.1%
8,Cc1cccc(N(C(=O)c2snc(C(N)=O)c2N)C(C)C(=O)NCC2CCCO2)c1 (stereo unspecified),inconclusive: -46.5%
9,CN1CCN(S(=O)(=O)c2cccc(C(=O)Oc3ccc(Br)cc3F)c2)CC1,inactive: 14.3%
10,COc1ccc(C2C(C(=O)OCC3CCCO3)=C(C)NC3=C2C(=O)CC(c2ccco2)C3)cc1O (stereo unspecified),inconclusive: -39.8%
11,CCOC(=O)c1ccccc1NC(=O)CSc1nnnn1C1CCCCC1,inconclusive: -44.7%
12,Cc1ccc(C2(C)NC(=O)N(CC(=O)N3CCN(S(=O)(=O)c4ccccc4[N+](=O)[O-])CC3)C2=O)cc1 (stereo unspecified),inactive: -12.5%
13,CN(CCOc1ccccc1)C(=S)Nc1ccc(OC(F)F)cc1,active: -57.5%
14,CCOc1cccc(-c2c(C(=O)N/N=C/c3sccc3C)nnn2-c2nonc2N)c1,inconclusive: -47.6%
15,CCCOc1ccc(NC(=O)C(=O)NCCCn2ccnc2)cc1,inactive: 35%
16,CN(C)c1ccc(C2C=C(c3ccc(Cl)cc3OC(F)F)Nc3ncnn32)cc1 (stereo unspecified),inactive: 14.1%
17,CCOC(=O)C1=C(c2ccccc2)OC(N)=C(C#N)C1c1ccncc1 (stereo unspecified),inactive: -15.5%
18,Cc1ccc(C)c(SCC(=O)Nc2cc(S(=O)(=O)N3CCOCC3)ccc2C)c1,inconclusive: -31%
19,OC(COCc1ccc(Cl)cc1)CN1CCN(CC(O)COCc2ccc(Cl)cc2)CC1 (stereo unspecified),inconclusive: -36.9%
20,CCc1nc2ccc(C(=O)NCc3cccs3)cn2c1N(C)Cc1nccs1,active: -53.8%
